Experimental data from PubChem BioAssay AID1345083 (National Center for Advancing Translational Sciences (NCATS), 2018).
In all, about 94,000 compounds went through this assay and about 6,200 (6.6%) were called active. Inconclusive results, whose numbers are uncertain, are shown with a selection of clear calls. Calls come from the whole dose curve; as a rule, active = well fitted inhibition curve with a large enough effect; inconclusive = small, poorly fitted or top-dose-only effect; inactive = flat fitted curve, though single readings scatter. Potencies of inconclusive entries are doubtful fits and often do not repeat.

Assay: Cytotoxic Profiling in HEK 293 Cell Line of Diverse Libraries Using Quantitative High-Throughput Screening; note: nearly all actives have a fitted effect of over 60% in size
Settings: HEK 293 viability, ATP luminescence (CellTiter-Glo), 48-72 h; activity change, negative = cytotoxicity: at 115 µM (top of the series) unless noted; series mostly up to 115 µM
In short: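 ATP-coupled CellTiter-Glo luminescence served as viability read-out, recorded 10 min after reagent addition at room temperature. HEK 293 cells, 250 cells/well, had been incubated with pintool-transferred compound for 48 or 72 hr at 37 degree Celsius.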
% is set by controls: 0 for no effect and ±100 for the full control effect; potency is the fitted concentration of half-maximal effect; tags give direction and shape of the fitted curve.

| Structure (SMILES) | Potency | activity change, negative = cytotoxicity | outcome |
| --- | --- | --- | --- |
| Cc1noc(C)c1S(=O)(=O)N1CCC2(CC1)CC(Cc1ccccc1)CCO2 (stereo not drawn) | inconclusive: 79.4 µM [inhibitor, partial curve, poor fit] |  |  |
| CN(Cc1ccccc1C(F)(F)F)Cc1cccc2ccccc12 | inconclusive: 44.7 µM [inhibitor, full curve, poor fit] |  |  |
| Cc1ccc(C(=O)N2CCC(CCC(=O)N3CCN(c4ccccn4)CC3)CC2)cc1 | inconclusive: 44.7 µM [inhibitor, partial curve, poor fit] |  |  |
| COCC(=O)N1CCC(N2C(=O)c3c(c(C)nn3-c3ccccc3)C2C)C1 (stereo not drawn) |  | inactive: -15.8% |  |
| O=C([C@@H]1CCCN1c1nccc(Nc2ccccc2Cl)n1)N1CCC(c2ccccc2)CC1 | active: 22.4 µM |  |  |
| CCn1nccc1C(=O)N1CCC2(CC1)CC(c1nc(C)no1)N(C)C2 (stereo not drawn) |  | inactive: -7.98% |  |
| CC(C)(C)CC(=O)N[C@H]1C[C@H]2C(=O)Nc3ccc(-c4ccsc4)cc3C(=O)N2C1 |  |  | inactive [at 172 µM] |
| CCN1c2cc(C(=O)Nc3cccc(C#N)c3)ccc2C(=O)N2CCCCC21 (stereo not drawn) | inconclusive: 70.8 µM [inhibitor, partial curve, poor fit] |  |  |
| Cc1noc([C@H]2CCN(S(=O)(=O)c3ccc4c(c3)CCC4)C[C@H]2NC(=O)C2CC2)n1 |  | inactive: -0.742% |  |
| C=CCNC(=O)C[C@@H]1CCN(C(=O)Nc2cccc(C(F)(F)F)c2)C[C@@H]1CC | inconclusive: 10 µM [inhibitor, full curve, poor fit] |  |  |
| Cc1ccc(NC(=O)CCC2CCN(S(=O)(=O)c3ccccc3C)CC2)cc1F |  | inactive: -51.9% |  |
| C[S+](=O)([O-])c1ccc(-c2cc(C(=O)NCc3cccnc3)nn3cccc23)cc1 | inconclusive: 50.1 µM [inhibitor, partial curve, poor fit] |  |  |
| CC(C(=O)NCC1CC1)N1C(=O)COc2ccc(C(=O)COc3ccccc3Cl)cc21 (stereo not drawn) | inconclusive: 89.1 µM [inhibitor, single point] |  |  |
| COC(=O)C1=C(C)N=C2SC=C(CC(=O)NC3CC3)N2C1c1ccc(C(C)C)cc1 (stereo not drawn) | inconclusive: 50.1 µM [inhibitor, partial curve, poor fit] |  |  |
| CNC(=O)c1cc(C2CC2)nc2onc(C3CCN(C(=O)c4ccc(C)cc4)C3)c12 (stereo not drawn) | inconclusive: 56.2 µM [inhibitor, partial curve, poor fit] |  |  |
| Cc1ccc(CN[C@@H]2CO[C@H](CNC(=O)NC(C)C)[C@H]2O)cc1 |  | inactive: -10.2% [at 172 µM] |  |
| NC(=O)c1cccnc1N1CCOC(CC(c2ccccc2)c2ccccc2)C1 (stereo not drawn) | inconclusive: 44.7 µM [inhibitor, partial curve, poor fit] |  |  |
| O=C(NCc1ccc(Cl)cc1)c1cc2n(n1)CC(c1ccc(Cl)cc1)OC2 (stereo not drawn) | inconclusive: 56.2 µM [inhibitor, partial curve, poor fit] |  |  |
| COC[C@@H]1CN(C(=O)CCn2cc(C)cn2)C[C@H]1c1nc(C2CC2)no1 | inconclusive: 39.8 µM [inhibitor, single point] |  |  |
| Cc1nc(CN2CC3(CCN(C)C3)c3cc(C(=O)NCc4ccccc4)ccc32)cs1 (stereo not drawn) | active: 112 µM |  |  |
| COc1cccc(N2CCN(C(=O)CCC[C@H]3NC[C@@H]4C[C@H]3CN(Cc3ccccc3)C4)CC2)c1 | inconclusive: 89.1 µM [inhibitor, single point] |  |  |

| Structure (SMILES) | Potency | activity change, negative = cytotoxicity | outcome |
| --- | --- | --- | --- |
| COc1ccc(C(=O)N2CCC3(CC2)NC(=O)N(Cc2cccc(Cl)c2)C3=O)cc1 | inconclusive: 44.7 µM [inhibitor, partial curve, poor fit] |  |  |
| O=C1CN(C(=O)c2ccc(Cl)cc2)CC(O)CN1Cc1ccc(Cl)cc1 (stereo not drawn) | inconclusive: 56.2 µM [inhibitor, partial curve, poor fit] |  |  |
| Cc1cccc(C(=O)N2CCN(C(=O)c3nnn4c3COC(c3ccc(Cl)cc3)C4)CC2)c1 (stereo not drawn) | inconclusive: 6.31 µM [inhibitor, full curve, poor fit] |  |  |
| CCOc1ccccc1C(=O)NC1CCN(c2cnn(C)c(=O)c2)CC1 |  | inactive: -11.6% |  |
| COc1ccc(-c2[nH]nc3ncc(-c4cccc(N(C)C)c4)nc23)c(C)c1 | inconclusive: 31.6 µM [inhibitor, partial curve, poor fit] |  |  |
| Cc1nn2c(c1-c1ccccc1[S+](C)(=O)[O-])N(Cc1ccc(C(=O)O)s1)CCC2 | inconclusive: 22.4 µM [inhibitor, full curve, poor fit] |  |  |
| CN(Cc1ccccc1)C(=O)c1ccnc(-c2nnc3ccc(N4CCOCC4)nn23)c1 | inconclusive: 112 µM [inhibitor, partial curve, poor fit] |  |  |
| COc1cccc(NC(=O)Cn2c(N(C)Cc3ccccc3)nc(C)cc2=O)c1 | inconclusive: 22.4 µM [inhibitor, partial curve, poor fit] |  |  |
| COCCn1ncc(N2CCCC(CC(=O)Nc3cc(OC)ccc3OC)C2)cc1=O (stereo not drawn) |  | inactive: -1.58% |  |
| CN(C)Cc1ccc(-c2cc3c(ccn3Cc3cccnc3)c(C3=CCOCC3)n2)cc1 | active: 56.2 µM |  |  |
| COc1ccc2c(c1)CN(Cc1ccccc1)C(=O)CCN2C[C@@H](O)COCc1ccccc1 | inconclusive: 56.2 µM [inhibitor, partial curve, poor fit] |  |  |
| COCC(=O)NC[C@H]1CCN(Cc2cccc(C#N)c2)C[C@H]1N(C)C |  | inactive: -30% |  |
| CCC1(N2CCN(C(=O)c3cccc(OC(F)(F)F)c3)CC2)CCN(S(C)(=O)=O)C1 (stereo not drawn) |  | inactive: -29.6% |  |
| O=C(NC1CC1)c1nc2sccn2c1-c1ccc(C(F)(F)F)cc1 | inconclusive: 89.1 µM [inhibitor, single point] |  |  |
| CC(=O)Nc1ccc(S(=O)(=O)N[C@@H]2C=C[C@@H](c3c(C)nn(-c4ccc(C(C)(C)C)cc4)c3C)C2)cc1 | active: 44.7 µM |  |  |
| O=C(NCc1ccc(Cl)cc1)c1nc2cccnc2n(C2CCCCC2)c1=O | inconclusive: 56.2 µM [inhibitor, partial curve, poor fit] |  |  |
| C[S+](=O)([O-])CCn1ncc2cc(OCc3cccc(-c4ccccc4)c3)ccc21 | inconclusive: 31.6 µM [inhibitor, full curve, poor fit] |  |  |
| CCOc1ccc2c(n1)CCN(C(=O)c1cccc(OC)c1OC)C2 | inconclusive: 79.4 µM [inhibitor, single point] |  |  |
| CN1C(=O)CCC2(CNC(=O)C3CC3)CCCC=C12 (stereo not drawn) |  | inactive: -3.41% |  |
| Cc1ccc(-c2c(C(=O)N3CCCCC3)nc3sccn23)cc1 | inconclusive: 50.1 µM [inhibitor, partial curve, poor fit] |  |  |
| O=[S+]([O-])(Nc1cccnc1)c1ccc2c(c1)OCCN(Cc1ccc(F)cc1)C2 | inconclusive: 70.8 µM [inhibitor, partial curve, poor fit] |  |  |

| Structure (SMILES) | Potency | activity change, negative = cytotoxicity | outcome |
| --- | --- | --- | --- |
| Cc1cccc(C(=O)NCCc2ncc(C)n2C2CC2)c1 | inconclusive: 89.1 µM [inhibitor, single point] |  |  |
| CCNC(=O)c1ccc(OC2CCN(C(=O)c3ccnn3C)C2)nc1 (stereo not drawn) |  | inactive: -17.6% |  |
| O=C1N(Cc2ccccc2F)CCOC12CCN(Cc1ccccc1F)CC2 | inconclusive: 100 µM [inhibitor, partial curve] |  |  |
| COC(=O)CNC(=O)c1nc(-c2ccc(Cl)cc2Cl)c2ccccn12 | inconclusive: 89.1 µM [inhibitor, single point] |  |  |
| O=C1[C@@H]2C[C@@H](O)CN2C2(CN(Cc3ccc(F)cc3)C2)C(=O)N1Cc1ccccc1 |  | inactive: 1.86% [at 172 µM] |  |
| C=CCOc1c(OC)ccc2c1CN(Cc1ccco1)C(=O)CCN2C[C@@H](O)COCc1ccccc1 | inconclusive: 56.2 µM [inhibitor, partial curve, poor fit] |  |  |
| C=CCN(C)C(=O)[C@@H](C)C1CC[C@@]2(C)Cc3sc(-c4cccnc4)nc3[C@@H](C)[C@@H]2[C@H]1O (stereo partly drawn) | inconclusive: 70.8 µM [inhibitor, partial curve, poor fit] |  |  |
| CN(CC1CCOC1)C(=O)Nc1cccc(Br)c1 (stereo not drawn) |  | inactive: -2.99% |  |
| COc1cccc(NC(=O)N[C@H]2[C@H](O)[C@@H](N3CCC(Cc4ccccc4)CC3)[C@@H]3OC[C@H]2O3)c1 | inconclusive: 56.2 µM [inhibitor, partial curve, poor fit] |  |  |
| CC1=C[C@@H](CC#N)[C@H](C(C)C)C[C@H]1CC(=O)NC1CC1 |  |  | inactive [at 230 µM] |
| COc1ccc(C(=O)N[C@@H]2CN(C(=O)NC(C)C)CCC[C@H]2O)cc1 |  | inactive: -21.9% [at 172 µM] |  |
| COc1ccc(CN2CCCc3nc(C)nc(-c4ccc(O)cc4)c3C2)cc1 | inconclusive: 79.4 µM [inhibitor, partial curve, poor fit] |  |  |
| O=C(c1ccccc1)N1CCN(C(=O)c2nc3cccnc3n(C3CC3)c2=O)CC1 |  | inactive: -15.7% |  |
| CSc1ccccc1C(=O)N(C)C1CCCN(CCCc2ccccc2)C1 (stereo not drawn) | inconclusive: 31.6 µM [inhibitor, full curve] |  |  |
| O=C(NCc1ccc(F)cc1)c1nc2cccnc2n(Cc2ccccc2)c1=O | inconclusive: 35.5 µM [inhibitor, full curve, poor fit] |  |  |
| Cc1ccc(-n2cccc2CC(=O)N2CCOCC2)cc1 |  | inactive: -2.61% |  |
| Cc1cccc(NC(=O)Cn2c(-c3cnccn3)nc(C)c(CCO)c2=O)c1C |  | inactive: -8.12% |  |
| Cc1cccc(OCCc2noc(C3CCCCN3S(=O)(=O)c3cn(C)cn3)n2)c1 (stereo not drawn) | inconclusive: 89.1 µM [inhibitor, single point] |  |  |
| CCNC(=O)N(C1CC1)C1CCOC2(CCN(C(=O)C3(c4ccccc4)CC3)CC2)C1 (stereo not drawn) | inconclusive: 100 µM [inhibitor, single point] |  |  |
| N#Cc1cccc(-c2c(C(=O)NCCc3ccccc3)nc3sccn23)c1 | inconclusive: 79.4 µM [inhibitor, partial curve] |  |  |
| O=C(Nc1ccc2c(c1)CN(C(=O)COc1ccccc1)CCO2)C1CC1 | inconclusive: 22.4 µM [inhibitor, full curve, poor fit] |  |  |
